Some of the results follow.
These sequences were tested against T1, MBP-FoxP1dN (Mus musculus, UniProt P58462 326-579) (assay: PD-seq (MBP pull-down with sequencing); 20 mM Tris-HCl pH 7.5, 100 mM NaCl, 1.5 mM MgCl2, 0.4 uM protein, 0.1 uM dsDNA library, 30 min, room temperature, amylose pull-down; high values mean tight binding). Settings: protein: recombinant; tags: His6-MBP; chain copies: 2; dsDNA, one strand shown.
T1 sequence: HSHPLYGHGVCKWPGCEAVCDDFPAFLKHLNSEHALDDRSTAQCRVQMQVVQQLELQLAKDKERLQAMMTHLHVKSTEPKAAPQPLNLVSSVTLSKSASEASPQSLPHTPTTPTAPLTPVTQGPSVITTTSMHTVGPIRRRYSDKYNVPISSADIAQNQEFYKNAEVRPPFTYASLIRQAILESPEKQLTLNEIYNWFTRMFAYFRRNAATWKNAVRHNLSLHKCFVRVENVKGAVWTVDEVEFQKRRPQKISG
Outline: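 Binding is given as reads-per-million enrichment, pull-down over input, with replicates pooled. The bait was an N-terminus-lacking mouse FoxP3 or FoxP1 fragment with a His6-MBP tag, expressed in E. coli and used at 0.4 µM with 0.1 µM Klenow-filled degenerate double-stranded DNA library for 30 min at room temperature in Tris pH 7.5 buffer with NaCl and MgCl2. Amylose resin pull-down with three washes was followed by proteinase K release, PCR barcoding and Illumina sequencing.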

Sequence | binding signal
GATGATTGTTCTCCCAGCTGATGAATTGGACATGTCGAGTAAACAAATTTTCCTAATCTTTCTGTTCAAGCGCCATCTAC | 0.895 RPM ratio (pull-down/input)
GATGATTGTTCTCCCAGCTGATGAATTCAGCCCCTCGAGTAAACAAATTTTCCTAATCTTTCTGTTCAAGCGCCATCTAC | 0.728 RPM ratio (pull-down/input)
GATGATTGTTCTCCCAGCTGATGAATTACTTTCCTCGAGTAAACAAATTTTCCTAATCTTTCTGTTCAAGCGCCATCTAC | 1.02 RPM ratio (pull-down/input)
GATGATTGTTCTCCCAGCTGATGAATTGTGAGACTCGAGTAAACAAATTTTCCTAATCTTTCTGTTCAAGCGCCATCTAC | 1.08 RPM ratio (pull-down/input)
GATGATTGTTCTCCCAGCTGATGAATTGACGGAATCGAGTAAACAAATTTTCCTAATCTTTCTGTTCAAGCGCCATCTAC | 1.12 RPM ratio (pull-down/input)
GATGATTGTTCTCCCAGCTGATGAATTGATCAATTCGAGTAAACAAATTTTCCTAATCTTTCTGTTCAAGCGCCATCTAC | 1.26 RPM ratio (pull-down/input)
GATGATTGTTCTCCCAGCTGATGAATTCCACACGTCGAGTAAACAAATTTTCCTAATCTTTCTGTTCAAGCGCCATCTAC | 0.866 RPM ratio (pull-down/input)
GATGATTGTTCTCCCAGCTGATGAATTGTGCGGGTCGAGTAAACAAATTTTCCTAATCTTTCTGTTCAAGCGCCATCTAC | 0.888 RPM ratio (pull-down/input)
GATGATTGTTCTCCCAGCTGATGAATTTCGATGTTCGAGTAAACAAATTTTCCTAATCTTTCTGTTCAAGCGCCATCTAC | 0.99 RPM ratio (pull-down/input)
GATGATTGTTCTCCCAGCTGATGAATTGGCGGTGTCGAGTAAACAAATTTTCCTAATCTTTCTGTTCAAGCGCCATCTAC | 0.835 RPM ratio (pull-down/input)
GATGATTGTTCTCCCAGCTGATGAATTTGACGGTTCGAGTAAACAAATTTTCCTAATCTTTCTGTTCAAGCGCCATCTAC | 0.839 RPM ratio (pull-down/input)
GATGATTGTTCTCCCAGCTGATGAATTATTCATTTCGAGTAAACAAATTTTCCTAATCTTTCTGTTCAAGCGCCATCTAC | 1.11 RPM ratio (pull-down/input)
GATGATTGTTCTCCCAGCTGATGAATTCGGCGAGTCGAGTAAACAAATTTTCCTAATCTTTCTGTTCAAGCGCCATCTAC | 0.786 RPM ratio (pull-down/input)
GATGATTGTTCTCCCAGCTGATGAATTCGCGGAGTCGAGTAAACAAATTTTCCTAATCTTTCTGTTCAAGCGCCATCTAC | 0.761 RPM ratio (pull-down/input)
GATGATTGTTCTCCCAGCTGATGAATTGATGACTTCGAGTAAACAAATTTTCCTAATCTTTCTGTTCAAGCGCCATCTAC | 0.994 RPM ratio (pull-down/input)
GATGATTGTTCTCCCAGCTGATGAATTTTCTATATCGAGTAAACAAATTTTCCTAATCTTTCTGTTCAAGCGCCATCTAC | 0.994 RPM ratio (pull-down/input)

Sequence | binding signal
GATGATTGTTCTCCCAGCTGATGAATTTTTACAGTCGAGTAAACAAATTTTCCTAATCTTTCTGTTCAAGCGCCATCTAC | 0.958 RPM ratio (pull-down/input)
GATGATTGTTCTCCCAGCTGATGAATTAGTTCTGTCGAGTAAACAAATTTTCCTAATCTTTCTGTTCAAGCGCCATCTAC | 0.873 RPM ratio (pull-down/input)
GATGATTGTTCTCCCAGCTGATGAATTGCGGCCGTCGAGTAAACAAATTTTCCTAATCTTTCTGTTCAAGCGCCATCTAC | 0.964 RPM ratio (pull-down/input)
GATGATTGTTCTCCCAGCTGATGAATTAAGCTTTTCGAGTAAACAAATTTTCCTAATCTTTCTGTTCAAGCGCCATCTAC | 0.971 RPM ratio (pull-down/input)
GATGATTGTTCTCCCAGCTGATGAATTCGCGAGTTCGAGTAAACAAATTTTCCTAATCTTTCTGTTCAAGCGCCATCTAC | 0.823 RPM ratio (pull-down/input)
GATGATTGTTCTCCCAGCTGATGAATTCATAGCGTCGAGTAAACAAATTTTCCTAATCTTTCTGTTCAAGCGCCATCTAC | 1.02 RPM ratio (pull-down/input)
GATGATTGTTCTCCCAGCTGATGAATTCCTCCTCTCGAGTAAACAAATTTTCCTAATCTTTCTGTTCAAGCGCCATCTAC | 0.88 RPM ratio (pull-down/input)
GATGATTGTTCTCCCAGCTGATGAATTTAGAGTGTCGAGTAAACAAATTTTCCTAATCTTTCTGTTCAAGCGCCATCTAC | 0.972 RPM ratio (pull-down/input)
GATGATTGTTCTCCCAGCTGATGAATTACGGAACTCGAGTAAACAAATTTTCCTAATCTTTCTGTTCAAGCGCCATCTAC | 0.99 RPM ratio (pull-down/input)
GATGATTGTTCTCCCAGCTGATGAATTACTGGGATCGAGTAAACAAATTTTCCTAATCTTTCTGTTCAAGCGCCATCTAC | 0.999 RPM ratio (pull-down/input)
GATGATTGTTCTCCCAGCTGATGAATTCTTCTGATCGAGTAAACAAATTTTCCTAATCTTTCTGTTCAAGCGCCATCTAC | 0.96 RPM ratio (pull-down/input)
GATGATTGTTCTCCCAGCTGATGAATTGTGGATGTCGAGTAAACAAATTTTCCTAATCTTTCTGTTCAAGCGCCATCTAC | 1.12 RPM ratio (pull-down/input)
GATGATTGTTCTCCCAGCTGATGAATTTAAAGGTTCGAGTAAACAAATTTTCCTAATCTTTCTGTTCAAGCGCCATCTAC | 0.8 RPM ratio (pull-down/input)
GATGATTGTTCTCCCAGCTGATGAATTGGCCCTGTCGAGTAAACAAATTTTCCTAATCTTTCTGTTCAAGCGCCATCTAC | 0.778 RPM ratio (pull-down/input)
GATGATTGTTCTCCCAGCTGATGAATTATGGATGTCGAGTAAACAAATTTTCCTAATCTTTCTGTTCAAGCGCCATCTAC | 0.983 RPM ratio (pull-down/input)
GATGATTGTTCTCCCAGCTGATGAATTCAGGAAATCGAGTAAACAAATTTTCCTAATCTTTCTGTTCAAGCGCCATCTAC | 0.945 RPM ratio (pull-down/input)
